From PubChem BioAssay AID686979 (National Center for Advancing Translational Sciences (NCATS), 2013)
About 50,000 (12%) of roughly 420,000 compounds were called active. This list was built around the results that the source calls inconclusive (neither active nor inactive); the mix of calls is not that of the screen. The call rests on the fitted dose curve; in most records, active means well fitted inhibition curve with a large enough effect; inconclusive means small, poorly fitted or top-dose-only effect; inactive means flat fitted curve, though single readings scatter. Potencies of inconclusive entries are left out as doubtful fits.

Test: qHTS for Inhibitors of human tyrosyl-DNA phosphodiesterase 1 (TDP1): qHTS in cells in presence of CPT; further: nearly all actives have a fitted effect of over 55% in size
Conditions: chicken DT40 Tdp1-/-;hTDP1 cells + 20 nM CPT, ATP luminescence, 48 h; activity change, negative = growth inhibition: at 46.2 µM (top of the series) unless noted
In short: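 Chicken DT40 Tdp1-/- cells stably complemented with human TDP1 were seeded at 400 cells/well in medium containing 20 nM camptothecin, exposed to pin-transferred compounds, and grown at 37 °C for at least 48 hr. Viability was read as ATP luminescence.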
On the % scale 0 is the no-effect control and ±100 the full control effect; potency means the concentration at half of the fitted maximal effect; tags describe the fitted curve by direction and shape.

| SMILES | Potency | activity change, negative = growth inhibition |
| --- | --- | --- |
| CCOC(=O)c1c(-c2ccccc2)csc1NC(=O)c1cc(-c2cccc(OC)c2)on1 | inconclusive [inhibitor, single point] | – |
| Cc1cc(NC(=O)c2ccc(Cl)cc2)n(CCOC(=O)c2ccc(Cl)cc2)n1 | inconclusive [inhibitor, single point] | – |
| Cc1ccc(C(=O)Nc2nnc(SCc3cc(=O)n4ccc(C)cc4n3)s2)cc1 | inactive | – |
| O=C(Nc1cccc(-c2csc(Nc3ccccc3)n2)c1)c1cc([N+](=O)[O-])cc(C(F)(F)F)c1 | inconclusive [inhibitor, single point] | – |
| Cc1ccc(OCC(=O)NNC(=O)c2ccc(F)c(S(=O)(=O)N3CCOCC3)c2)cc1C | inactive | – |
| CN(C)c1ccc(/C=N/NC(=O)CN(c2ccccc2Cl)S(C)(=O)=O)cc1Br | inconclusive [inhibitor, single point] | – |
| CCCCCn1c(NC2CCCCC2)nc2c1c(=O)[nH]c(=O)n2C | – | inconclusive: -32% [inhibitor] |
| Cc1cccc(NC(=O)CNC(=O)Cn2ncc(Cl)c(Cl)c2=O)c1C | active: 11.6 µM | – |
| CC1(CCc2ccccc2)NC(=O)N(Cc2nnc(-c3ccccc3Br)o2)C1=O (stereo not drawn) | inconclusive [inhibitor, single point] | – |
| O=C(COc1ccc(Cl)cc1)Nc1ccc2[nH]ncc2c1 | inconclusive [inhibitor, partial curve] | – |
| COC(=O)c1ccc(C(C(=O)NCc2ccccc2)N(Cc2cccs2)C(=O)c2cnccn2)cc1 (stereo not drawn) | inconclusive [inhibitor, partial curve] | – |
| Cc1c(C(=O)NCCSCc2c(F)cccc2Cl)cnn1-c1ccc(Cl)cc1 | inconclusive [inhibitor, single point] | – |
| Cc1ccc(OCCC(=O)Nc2ccc(F)c(Cl)c2)cc1 | inactive | – |
| CCC(=O)N1c2nc(C(C)C)nn2C2(CCCCC2)[C@@H]2CCCC[C@@H]21 | active: 8.2 µM | – |
| Cc1ccc(Nc2nnc(SCn3nnc4ccccc4c3=O)s2)cc1 | inconclusive [inhibitor, single point] | – |
| COc1ccc(CNCC(O)(c2ccccc2)c2ccc(F)cc2)cc1 (stereo not drawn) | active: 20.6 µM | – |
| COc1ccc(NC(=O)c2ccccc2NS(=O)(=O)c2ccc(CNC(C)=O)cc2)c(OC)c1 | inconclusive [inhibitor, single point] | – |
| COc1ccccc1OCC(O)Cn1c(Br)nc2c1c(=O)[nH]c(=O)n2C (stereo not drawn) | inconclusive [inhibitor, partial curve, poor fit] | – |
